From PubChem BioAssay AID686979 (National Center for Advancing Translational Sciences (NCATS), 2013)
The whole screen tested about 420,000 compounds, of which about 50,000 (12%) were called active. The shares of active, inactive and inconclusive entries below differ from those in the screen. The call rests on the fitted dose curve; in most records, active means well fitted inhibition curve with a large enough effect; inconclusive means small, poorly fitted or top-dose-only effect; inactive means flat fitted curve, though single readings scatter. No potency is given beside an inconclusive call; the fits are too rough.

Assay: qHTS for Inhibitors of human tyrosyl-DNA phosphodiesterase 1 (TDP1): qHTS in cells in presence of CPT; further: nearly all actives have a fitted effect of over 55% in size
Conditions: chicken DT40 Tdp1-/-;hTDP1 cells + 20 nM CPT, ATP luminescence, 48 h; activity change, negative = growth inhibition: at 46.2 µM (top of the series) unless noted
Method in brief: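 Chicken DT40 Tdp1-/- cells stably complemented with human TDP1 were seeded at 400 cells/well in medium containing 20 nM camptothecin, exposed to pin-transferred compounds, and grown at 37 °C for at least 48 hr. Viability was read as ATP luminescence.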
On the % scale 0 is the no-effect control and ±100 the full control effect; potency means the concentration at half of the fitted maximal effect; tags describe the fitted curve by direction and shape.

Structure (SMILES) | Potency | activity change, negative = growth inhibition
Cc1ccc2c(c1)N(C)/C(=C/c1cccc[n+]1C)S2 | active: 3.66 µM | 
COc1ccc(CNCc2ccc3c(c2)OCO3)cc1Br | inconclusive [inhibitor, single point] | 
COC(=O)c1cc(CSc2nc3ccc(C)cc3[nH]2)oc1C | active: 16.4 µM | 
O=C(NCCc1ccccc1)C1CCN(Cc2cc3ccccc3n2Cc2ccccc2)CC1 | inconclusive [inhibitor, single point] | 
C#CCOCCOCCOCCNc1nc(N2CCN(C(=O)CCCCCCCCCCNC(=O)Cn3cc(CCCCCN)nn3)CC2)nc(N2CCN(C(=O)CCCCCCCCCCNC(=O)[C@@H](CCC(=O)O)n3cc(CCCCCN)nn3)CC2)n1 | inconclusive [inhibitor, single point] | 
O=[N+]([O-])c1ccc(/C=C2\CCC(C3=CCCC3)=C2N2CCOCC2)cc1 | inconclusive [inhibitor, partial curve] | 
CCOc1ccccc1CN1CCc2nc(N3CCN(C)CC3)ncc2C1 | inconclusive [inhibitor, single point] | 
Cc1ccc(-n2nc(CC#N)c(C#N)c2N)cc1 | inactive | 
Cc1ccnc(NC(=O)CCC(=O)N(CC(=O)NCc2ccccc2)c2ccc3c(c2)OCO3)c1 | active: 7.31 µM | 
Cc1nc2cc(-c3ccccc3)[nH]n2c(=O)c1C |  | inconclusive: -30.6% [inhibitor]
CC(Oc1cc2oc(=O)c3c(c2cc1Cl)CCC3)C(=O)NCc1ccccn1 (centres undefined) | inactive | 
Cn1c(SCC(=O)Nc2ccc(C(N)=O)cc2)nc2c(c1=O)SCC2 | inactive | 
COc1cc(/C=C/C(=O)OCC(=O)Nc2sc3c(c2C#N)CCC(C)C3)ccc1OCC#N (centres undefined) | inactive | 
COc1ccccc1-c1c(C)c(C)nc(N)c1C#N | inactive | 
O=C(CCCO)NNc1c2ccccc2nc2ccccc12 | inactive | 
C/C(=N\NC(=O)COc1ccccc1-c1ccccc1)c1cccnc1 | inconclusive [inhibitor, single point] | 
CC1(C(=O)NCc2ccco2)Cc2c(-c3cccc(C(F)(F)F)c3)ccnc2O1 (centres undefined) | active: 2.59 µM | 
CN1C(C(=O)c2ccccc2)=C(NC(=O)c2ccc(F)cc2)c2ccccc2S1(=O)=O | inconclusive [inhibitor, single point] | 
CCC(CC)C(=O)N1N=C(c2ccc(NS(C)(=O)=O)cc2)CC1c1ccccc1 (centres undefined) | inconclusive [inhibitor, single point] | 
O=C(NCCc1ccco1)c1cc(COc2cccc(C(F)(F)F)c2)on1 | inconclusive [inhibitor, single point] | 
CCOc1ccc(-c2cc(C(=O)NC(C)c3ccccc3)c3ccccc3n2)cc1 (centres undefined) | inconclusive [inhibitor, single point] | 
COc1ccccc1NS(=O)(=O)c1ccc(C(=O)NCC(c2ccccc2OC)N(C)C)cc1 (centres undefined) | inactive | 
CCS(=O)(=O)c1ccc2oc(SCC(=O)c3ccco3)nc2c1 |  | inconclusive: -30.2% [inhibitor]
COCc1cc(CN2CCN(C)CC2)c(O)c2ncccc12 | active: 4.11 µM | 
CC(O)(c1cccnc1)c1nc(-c2ccoc2)cs1 (centres undefined) | inactive | 

Structure (SMILES) | Potency | activity change, negative = growth inhibition
CC(=O)N(/N=C1\Sc2ccccc2C1=O)c1ccc(C)cc1C | inconclusive [inhibitor, single point] | 
O=C(NCc1ccccc1)C(c1cccnc1)N(C(=O)c1csnn1)c1ccc(F)cc1 (centres undefined) | inactive | 
COC(=O)N1C(=O)[C@@](c2ccccc2)(C(C)C)N1C(=O)OC | active: 16.4 µM | 
O=C(N/N=C/C(Cl)=C/c1ccccc1)c1ccc2c(c1)OCO2 | inconclusive [inhibitor, single point] | 
COc1cc(/C=N/N=C2/NC(=O)C(CC(=O)O)S2)ccc1OCc1ccc(Cl)cc1 (centres undefined) | inactive | 
Cc1ccc(S(=O)(=O)n2c(N)nc3ccccc32)cc1 |  | inconclusive: -34.3% [inhibitor]
COc1ccc(CNc2nc3c(c(=O)n(Cc4ccc(Br)cc4)c(=O)n3C)n2C)cc1 | inconclusive [inhibitor, single point] | 
Cc1cc(C(=O)COC(=O)C2=COCCO2)c(C)n1-c1cccc(F)c1 | inconclusive [inhibitor, single point] | 
O=C(/C=C/c1ccc2c(c1)OCO2)c1cccnc1 | inconclusive [inhibitor, single point] | 
C/C(=N\OC(=O)c1c(-c2c(F)cccc2Cl)noc1C)c1nccs1 | inactive | 
CCCCOc1ccc(OC(=O)c2cccnc2)cc1 | active: 20.6 µM | 
N#Cc1ccccc1NC(=O)COc1ccccc1C(=O)Nc1ccccc1 | active: 15.8 µM | 
CCOC(=O)C1=C(COC(=O)c2ccc3ccccc3c2O)NC(=O)NC1C (centres undefined) | inconclusive [inhibitor, single point] | 
Cc1nnc(SCc2cccc([N+](=O)[O-])c2)[nH]c1=O | inactive | 
O=C(NCCc1ccc(Cl)cc1)c1ccc2c(c1)nc1n2CCOC1 | inconclusive [inhibitor, single point] | 
CN(C)CCN(Cc1ccco1)C(=O)c1cc2c(s1)-c1ccccc1OC2 | active: 16.4 µM | 
CCc1c(C)[nH]c2c(C)cccc2c1=O | inconclusive [inhibitor, single point] | 
CCN(CC)C(=O)c1sc(NC(=O)c2ccc3c(c2)OCO3)c(C#N)c1C | inactive | 
O=C1/C(=C/c2cccnc2)SC(=S)N1Cc1ccco1 | active: 23.1 µM | 
Cc1ccc2nc(NNC(=O)c3ccc(S(=O)(=O)N4CCc5ccccc5C4)cc3)sc2c1 | active: 2.91 µM | 
O=C(Nc1ccccc1)C1=C[C@H](c2ccc3c(c2)OCO3)C[C@H](OCCCCO)O1 | active: 25.9 µM | 
COc1ccc([N+](=O)[O-])cc1/C=N/Nc1nc(N2CCCCC2)nc(N2CCCCC2)n1 | inconclusive [inhibitor, single point] | 
CCNC(=S)N1CCN(C(=O)C(Cc2ccccc2)NC(C)=O)CC1 (centres undefined) | inactive | 
Cc1ccc(-c2n[nH]c(=O)c3ccccc23)cc1S(=O)(=O)Nc1ccc(F)cc1 | inconclusive [inhibitor, partial curve, poor fit] | 
